Results are given in words; binding and its absence hold for the method and conditions named. Binding seen in cells or lysates may run through a third protein. Some binding calls cover weakened binding; strength is not graded here. For some assays here: Sequences can lack the tags named with a protein. One block for each molecule: values may come before it.
Legend:
[1] = target: T1, FBXO28-Flag-Myc (pCMV6-FBXO28-Myc-Flag) (UniProt Q9NVF7); test: co-IP; HEK293T cells expressing FBXO28 or FBXO28ΔF; CULLIN1 and SKP1 detected in the immunoprecipitate by IB (Supplementary Fig. S5B, S5E)
T1 sequence: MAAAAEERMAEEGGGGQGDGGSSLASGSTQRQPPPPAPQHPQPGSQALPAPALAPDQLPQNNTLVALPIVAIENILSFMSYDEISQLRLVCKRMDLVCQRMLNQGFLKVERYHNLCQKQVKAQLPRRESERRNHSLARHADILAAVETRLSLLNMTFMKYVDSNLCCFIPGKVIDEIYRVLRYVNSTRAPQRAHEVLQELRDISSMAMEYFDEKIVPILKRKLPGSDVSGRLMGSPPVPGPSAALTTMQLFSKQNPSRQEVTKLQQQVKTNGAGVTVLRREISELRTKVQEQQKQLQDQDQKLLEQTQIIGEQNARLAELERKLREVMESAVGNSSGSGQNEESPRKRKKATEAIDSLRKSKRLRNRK

Protein sequences, listed by entry. Tags and fused reporters are not part of them.
UniProt P63208: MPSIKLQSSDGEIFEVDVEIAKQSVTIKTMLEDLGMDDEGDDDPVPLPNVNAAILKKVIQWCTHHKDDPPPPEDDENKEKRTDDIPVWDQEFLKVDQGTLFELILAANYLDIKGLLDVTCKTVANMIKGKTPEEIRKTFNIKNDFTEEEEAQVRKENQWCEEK

[2] = target: T1, FBXO28-Flag-Myc (pCMV6-FBXO28-Myc-Flag); test: co-IP; Huh7 and HCCLM3 cells co-expressing FBXO28-Flag and SNAI2-Myc, IP by anti-Flag antibody, MG132 20 uM 6 h before harvest, Triton X-100 buffer, IB
[3] = target: T2, FBXO28 (endogenous, Huh7 cells) (human (endogenous in Huh7)) (UniProt Q9NVF7); test: co-IP; untransfected Huh7 cells, IP with FBXO28 antibody or normal rabbit IgG on Protein A/G magnetic beads, IB; both proteins endogenous
T2 sequence: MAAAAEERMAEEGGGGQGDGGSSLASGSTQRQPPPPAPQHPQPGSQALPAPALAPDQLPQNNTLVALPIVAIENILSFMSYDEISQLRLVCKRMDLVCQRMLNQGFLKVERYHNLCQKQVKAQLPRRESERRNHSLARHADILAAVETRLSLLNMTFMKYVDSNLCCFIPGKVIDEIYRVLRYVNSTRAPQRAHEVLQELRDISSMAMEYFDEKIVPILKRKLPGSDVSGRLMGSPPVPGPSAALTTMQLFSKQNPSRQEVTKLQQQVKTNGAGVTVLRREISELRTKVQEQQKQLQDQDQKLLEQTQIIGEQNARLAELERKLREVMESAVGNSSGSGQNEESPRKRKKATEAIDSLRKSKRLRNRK

[4] = target: T1, FBXO28-Flag-Myc (pCMV6-FBXO28-Myc-Flag); test: co-IP; HEK293T cells transfected with FBXO28 and SNAI2 plasmids (wild type or mutants) for 48 h, MG132 20 uM 6 h before harvest, Triton X-100 buffer, IP and IB
[5] = target: T1, FBXO28-Flag-Myc (pCMV6-FBXO28-Myc-Flag); test: condition: only cells treated with PKA inhibitors (H89 or KT5720); co-IP; HEK293T cells transfected with FBXO28 and SNAI2 plasmids for 24 h, then treated with the PKA inhibitor H89 (0.2 uM, 24 h; DMSO as control) or KT5720 (Supplementary Fig. S6B), IP and IB

Molecule: SKP1 (from UniProt P63208 1-163)
binding [1]: binds

B2: SNAI2 (endogenous, Huh7 cells) (protein, UniProt O43623 1-268)
chain: MPRSFLVKKHFNASKKPNYSELDTHTVIISPYLYESYSMPVIPQPEILSSGAYSPITVWTTAAPFHAQLPNGLSPLSGYSSSLGRVSPPPPSDTSSKDHSGSESPISDEEERLQSKLSDPHAIEAEKFQCNLCNKTYSTFSGLAKHKQLHCDAQSRKSFSCKYCDKEYVSLGALKMHIRTHTLPCVCKICGKAFSRPWLLQGHIRTHTGEKPFSCPHCNRAFADRSNLRAHLQTHSDVKKYQCKNCSKTFSRMSLLHKHEESGCCVAH
binding [3]: binds

The remaining lines, values ahead:

binding [2]: binds
B1: SNAI2-Myc (pcDNA3.1-SNAI2-Myc) (protein, UniProt O43623 1-268)
chain: MPRSFLVKKHFNASKKPNYSELDTHTVIISPYLYESYSMPVIPQPEILSSGAYSPITVWTTAAPFHAQLPNGLSPLSGYSSSLGRVSPPPPSDTSSKDHSGSESPISDEEERLQSKLSDPHAIEAEKFQCNLCNKTYSTFSGLAKHKQLHCDAQSRKSFSCKYCDKEYVSLGALKMHIRTHTLPCVCKICGKAFSRPWLLQGHIRTHTGEKPFSCPHCNRAFADRSNLRAHLQTHSDVKKYQCKNCSKTFSRMSLLHKHEESGCCVAH

binding [4]: binds
binding [5]: no binding
B3: SNAI2-HA (pcDNA4.0-SNAI2-HA) (protein, UniProt O43623 1-268)
chain: MPRSFLVKKHFNASKKPNYSELDTHTVIISPYLYESYSMPVIPQPEILSSGAYSPITVWTTAAPFHAQLPNGLSPLSGYSSSLGRVSPPPPSDTSSKDHSGSESPISDEEERLQSKLSDPHAIEAEKFQCNLCNKTYSTFSGLAKHKQLHCDAQSRKSFSCKYCDKEYVSLGALKMHIRTHTLPCVCKICGKAFSRPWLLQGHIRTHTGEKPFSCPHCNRAFADRSNLRAHLQTHSDVKKYQCKNCSKTFSRMSLLHKHEESGCCVAH
